PubChem BioAssay (NCATS)
The shares of active, inactive and inconclusive entries below differ from those in the screen. Potencies of inconclusive entries are left out as doubtful fits. Active and inactive are the calls of the source. Calls come from the whole dose curve; as a rule, active = well fitted curve in either direction with a large enough effect (not every such curve was filed as active); inconclusive = small, poorly fitted or top-dose-only effect, or another doubt; inactive = flat fitted curve, though single readings scatter.

Each compound was assayed against Mitogen-activated protein kinase 10 (Mus musculus) (UniProt Q61831) (assay: JNK3 AlphaScreen Assay (AID 530;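 note: kinase came from lysate of stimulated human HepG2 cells; signal reports phosphorylation of biotinylated GST-cJun 1-79 at Ser73 with 10 µM ATP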)). Conditions: JNK3 lysate, c-Jun phosphorylation; series mostly up to 57.1 µM.
Method in brief: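 Compound titrations were preincubated 15 minutes at room temperature with substrate, antibody and pre-activated JNK3-containing HepG2 lysate. Reactions were started with 10 uM ATP and stopped with EDTA-containing bead buffer for AlphaScreen detection.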
Potency is the fitted concentration of half-maximal effect; tags give direction and shape of the fitted curve.

Row | SMILES | Potency
1 | CCC/C=C(\CCC)C(NS(=O)(=O)c1ccc(C(F)(F)F)cc1)c1ccccc1 (stereo not given) | inconclusive [activator, partial curve]
2 | CC(C)COC(=O)COc1cc(Cl)c(Cl)cc1Cl | inconclusive [activator, partial curve]
3 | c1ccccc1 | inconclusive [activator, single point]
4 | Brc1cc(Br)c(Oc2cc(Br)c(Br)cc2Br)cc1Br | inconclusive [activator, full curve]
5 | CCNc1ccccc1 | inactive
6 | O=c1[nH]ncc2ccccc12 | inconclusive [activator, full curve, poor fit]
7 | CCOCCOCC | inactive
8 | c1cc2c3c(c1)ccc1cccc(c13)C2 | inconclusive [activator, partial curve]
9 | OC1CCCCC1 | inconclusive [activator, full curve, poor fit]
10 | Nc1nc(NCCc2ccc(O)cc2)nc2nc(-c3ccco3)nn12 | inconclusive [inhibitor, single point]
11 | C/C(Cl)=C/CCl | inconclusive [activator, full curve, poor fit]
12 | O=C(O)CN(CC(=O)O)CC(=O)O | inactive
13 | c1ccc2c(c1)-c1cccc3c1c-2cc1ccccc13 | active: 2.51 µM [activator]
14 | Nc1ccc2c(c1)C(=O)c1ccccc1C2=O | inconclusive [inhibitor, full curve]
15 | C[Si](C)(C)Cl | inconclusive [activator, full curve, poor fit]
16 | C=Cc1cccc(C)c1 | inconclusive [activator, full curve, poor fit]
17 | CN(C)c1ccc(Cc2ccc(N(C)C)cc2)cc1 | inconclusive [inhibitor, partial curve, poor fit]
18 | CC(=O)OC(C(=O)c1ccccc1)c1ccccc1 (stereo not given) | inconclusive [activator, full curve, poor fit]
19 | O=C(O)c1cc(N=Nc2ccc([N+](=O)[O-])cc2)ccc1O | inconclusive [inhibitor, partial curve]
20 | COC(=O)[C@@]1(Cc2ccc(F)cc2)[C@H]2c3cc(C(=O)N(C)C)n(Cc4ccccc4)c3C[C@H]2CN1C(=O)c1ccccc1 | inconclusive [inhibitor, single point]

Row | SMILES | Potency
21 | O=C(/C=C/c1ccc(O)c(O)c1)OC1C[C@](O)(C(=O)O)C[C@@H](O)[C@H]1O (stereo not given in full) | inconclusive [activator, full curve, poor fit]
22 | CC=C(Cl)Cl | inactive
23 | COc1cccc(-c2oc3ccccc3c(=O)c2O)c1 | inconclusive [activator, partial curve, poor fit]
24 | CCCC/C=C/C(NC(=O)c1ccccc1)c1ccccc1 (stereo not given) | inconclusive [activator, single point]
25 | c1ccc2c(c1)ccc1ccccc12 | inconclusive [activator, full curve]
26 | Cc1ccc(C(=O)[C@@H]2[C@@H]3[C@@H](C(=O)[C@@H]4OC[C@H]3O4)[C@@H]3C=Cc4ccccc4N23)cc1 | inconclusive [inhibitor, partial curve]
27 | CC(C)OCC1CO1 (stereo not given) | inconclusive [activator, full curve, poor fit]
28 | Nc1ccc(N=Nc2ccccc2)c(N)c1 | inconclusive [inhibitor, partial curve]
29 | CC(=O)c1ccc(Cl)c(Cl)c1Cl | inconclusive [activator, full curve, poor fit]
30 | Cc1nc(NCc2ccccc2)c2nc(-c3ccccc3)n(CCN3CCOCC3)c2n1 | inconclusive [inhibitor, partial curve]
31 | COC(=O)N1[C@H](Cc2ccccc2)C=C[C@]1(C)C(=O)NCc1ccc(N(C)C)cc1 | inconclusive [inhibitor, partial curve]
32 | CCC(Cl)CC(Cl)C(Cl)C(Cl)C(Cl)C(C)Cl (stereo not given) | inconclusive [activator, partial curve]
33 | NCCC[C@@H](CC(=O)N[C@@H]1CCNC[C@H]1C(=O)N[C@H](CC(=O)N[C@@H](CCC(=O)O)CC(=O)O)Cc1c[nH]c2ccccc12)NC(=O)C[C@H](Cc1ccccc1)NC(=O)[C@@H]1CNCC[C@H]1N | inconclusive [activator, full curve, poor fit]
34 | Cc1cc2nc(N)sc2cc1C | inconclusive [inhibitor, full curve, poor fit]
35 | CC(C)C[C@@H](CC(=O)N[C@H](CC(=O)N[C@@H]1CCNC[C@H]1C(=O)N[C@H](CC(=O)N[C@@H](CCC(=O)O)CC(=O)O)Cc1c[nH]c2ccccc12)C(C)C)NC(=O)[C@@H]1CNCC[C@H]1N | inconclusive [inhibitor, single point]
36 | Cc1ccc(C(=O)O)cc1[N+](=O)[O-] | inconclusive [activator, full curve]
37 | C=C(C)C1CC=C(C)C(OC(C)=O)C1 (stereo not given) | inactive
38 | C1CCCNCC1 | inconclusive [activator, full curve, poor fit]
39 | c1ccc(SCCSc2ccccc2)cc1 | inconclusive [activator, partial curve]
40 | O=[N+]([O-])c1ccccc1Nc1ccccc1 | inconclusive [inhibitor, partial curve]
